Reference: publication PMC12136788
Some of the results follow.

T1: UNK ZnF1-3 (human, UniProt Q9C0B0 31-174)
T1 sequence: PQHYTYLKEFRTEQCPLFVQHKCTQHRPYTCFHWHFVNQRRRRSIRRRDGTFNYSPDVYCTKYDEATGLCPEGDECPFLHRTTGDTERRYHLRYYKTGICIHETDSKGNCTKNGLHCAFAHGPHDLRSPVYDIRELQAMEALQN

B1: 166765582_166766801_2334_CDS_ENSMUSG00000002718_ENSMUST00000002790|mouse|control|control (ssRNA)
RNA: GGGAGUUCUACAGUCCGACGAUCGAUUAUACUGUUGAGAAGAUAGAAACCUUGGUGAUCGUUUGCCUUGGAUGCAAUCAGCUUCUGGAAGACACCCAGUAAUCCAGGAAUUUUGUCAGCUGCAGCAGUUGCUAUUGUACUUGACAACAGAGGAUUGAGCAUCA
B2: chr1:225611761:225611762:-_ENSG00000143815_ENST00000272163|hu_mus|hu_hu_hu_mus_True|28_58 (ssRNA)
RNA: GGGAGUUCUACAGUCCGACGAUCCCAGGCCAUCGGCCUCUGACCACUUCACCCUCAACAAACUUCCUACUUGGCAUUUUCUAUAAUUAGUCUGGCCGCGCUCCGGCCGGUGACACGGCCACUCCAGGACAGUCACCAGCAGCCCAACAGAGGAUUGAGCAUCA
B3: 93056736_93062024_1308_3pUTR_ENSMUSG00000020964_ENSMUST00000021347|mouse|control|control (ssRNA)
RNA: GGGAGUUCUACAGUCCGACGAUCCUUUCCCAGGAAGGCCAUAGCAUGUGAAUUGCCAGCAUUUGCUGCUAAGUUGAAGUAGUCAAACGCUCUCUGGUGAUUCUGUUCUACUCCACGCCCUCCAUGCAGAUGCAGCUGUCCCAGCAACAGAGGAUUGAGCAUCA
B4: chr11:46405157:46405158:+_ENSG00000110492_ENST00000395566|hu_hu|hu_hu_hu_mus_False|88_88 (ssRNA)
RNA: GGGAGUUCUACAGUCCGACGAUCCCCUCCCCACUUUGGGCACUUGGUGAGAGGGACAGAGGACAGGCGUGAUUGACAGAGCUGACAGGAAGACAAAAGGCACUGGUGGGUUAUAUCUUGGGCCUGUGGGAGAGGAGGGCUCCGCAACAGAGGAUUGAGCAUCA
B5: chr7:141438946:141438947:+_ENSG00000106028_ENST00000265304|hu_mus|motif|central (ssRNA)
RNA: GGGAGUUCUACAGUCCGACGAUCGACGAAAUACCUGUAACACAGGUCUUCGAAACAUGGCUUCUGUUUUUCUUACAACCGGAUCUUUAGGCUUUUCCUAAAGGAAAGAAAGAAAAGAGAAAAAUGAUAAAUCAAGAAACUACACAACAGAGGAUUGAGCAUCA
B6: chr5:4806066:4806067:-_ENSMUSG00000028926_ENSMUST00000030763|mus_hu|FALSE|FALSE (ssRNA)
RNA: GGGAGUUCUACAGUCCGACGAUCGUUUGAUAAUUGUUUUUUCAAUUCCAACCUAUUCAAAAAACAGUCAUGCUAUGUGGCUUGAAAAUGCUAAGCAGAGUCCAAUAUCCUAUAUAUAAAUGUGCAGUUAUUUCCAAGUAAAAACAACAGAGGAUUGAGCAUCA
B7: 32197834_32217671_124_5pUTR_ENSG00000165322_ENST00000344936|human|control|control (ssRNA)
RNA: GGGAGUUCUACAGUCCGACGAUCGGCUUGUUGGAUGAAUAUAGCUUAGAACAAGGAGAUCUACACCAGUAUCACAUUUAAACCGGGAGCCCGGCGGCCUCGCAGCAGGCGGCUCCCUUCUUAGUCCGCCCCGCGGCUGCGGGUCAACAGAGGAUUGAGCAUCA
B8: chr11:87793471:87793472:-_ENSMUSG00000020483_ENSMUST00000020775|mus_mus|mus_mus_mus_hu_False|1_88 (ssRNA)
RNA: GGGAGUUCUACAGUCCGACGAUCUGGACUUGAAAAUAAAAGAAUAAGCUAGAUUUCCCACCCCCCCACAUUGUCAACCCUACACGAGAGUUUUGAAGGCGACUCAUGAAAAUCAGCAGCUCAAACGGCAAUGACCACCCACCCCAACAGAGGAUUGAGCAUCA
B9: chr4:25749455:25749456:-_ENSG00000091490_ENST00000264868|hu_hu|hu_hu_hu_mus_False|48_98 (ssRNA)
RNA: GGGAGUUCUACAGUCCGACGAUCGCACUAUGACCUCCCCUAGAAAACACAGGGGGAAAAAAUGUAAACCAAUGUACAAUGUUAUCGCCCUCCCUGCGUGUGGAGUGUUUGUCUCAAGGCUCCUUCUAGCUGCUGGAUUUGGGACAACAGAGGAUUGAGCAUCA
B10: chr8:131229317:131229318:+_ENSMUSG00000025809_ENSMUST00000090006|mus_mus|FALSE|FALSE (ssRNA)
RNA: GGGAGUUCUACAGUCCGACGAUCUGGCCAAAUACAGAACAAAUCAAACUGAUCAAUCCAAUCCAGGAAACCAGUUGCAAAUUCAUCUUUUCGCAGCGUCCGCCCGACACGCGGGCGGCCCGGGCUCCGCCGCGUUCCGCCUCUCAACAGAGGAUUGAGCAUCA
B11: chr17:53623224:53623225:+_ENSMUSG00000017831_ENSMUST00000017975|perfect_dup|motif|central (ssRNA)
RNA: GGGAGUUCUACAGUCCGACGAUCGGCCCGUUGGGUCUUGUUGCUCCUCGAUUAGCCAUGUCCAAAUUUUAAAGAAGUCCCGGAUUUCAGAUUCCUAAAUGAACUUCCAGGAUGCAAGGCAUUAAUUUUGUUUUCUUUCUGGAGCAACAGAGGAUUGAGCAUCA
B12: chr2:71272186:71272187:+_ENSMUSG00000027018_ENSMUST00000028408|mus_hu|FALSE|FALSE (ssRNA)
RNA: GGGAGUUCUACAGUCCGACGAUCUUGUGCCUCUAUCGCCAUAUCUUCAUUGAAUCCUUGCAUUAAUUUUUCCCGGGAAAAACAGGGCAAAUCUUGACAAAGCUUCACAAGCACAAAGUCUCGUAAUUUCACAUAGCUUUUGGACAACAGAGGAUUGAGCAUCA
B13: 47103711_47103831_6217_CDS_ENSG00000181555_ENST00000409792|human|control|control (ssRNA)
RNA: GGGAGUUCUACAGUCCGACGAUCUCUUCGUUUCCUUUUCUCUUUAUUUUGAGUUUGCUUGUCUGGGUCUCUCUCUCUUGACCUAUUAGGAGUCUUCGGGGCAGGUGUUUGAUCUCUGAAGCCAACAGCAUCCCUUCCUCGUUCCAACAGAGGAUUGAGCAUCA
B14: chr3:71021771:71021772:-_ENSG00000114861_ENST00000475937|hu_mus|motif|central (ssRNA)
RNA: GGGAGUUCUACAGUCCGACGAUCCACUGUCCAUACUGCCCCUUUAACGUUCUCUACUCGCACAAAACACUUGUGGAGACGGAGAUUAUGACGCACUGCAUUCUUCCACGUGGCUGCAUUGCGUCGGAAGUAAGCAAACAUUCGCAACAGAGGAUUGAGCAUCA
B15: chr8:74858975:74858976:-_ENSG00000154582_ENST00000284811|hu_mus|hu_hu_hu_mus_True|8_68 (ssRNA)
RNA: GGGAGUUCUACAGUCCGACGAUCGACCUUGUAGGUAAAAUACAUGCACACUUUUGAUAGCACAUGUGAAGGUAUCUCUCUAAAAUUGACCUCGUUGGUUUCAUUCUCAGCAAACUGACCUGGACCACUCAACAUGGCCUUUAUCAACAGAGGAUUGAGCAUCA
B16: chr1:46159212:46159213:+_ENSG00000159596_ENST00000372025|hu_mus|hu_hu_hu_mus_True|8_88 (ssRNA)
RNA: GGGAGUUCUACAGUCCGACGAUCUCUGAUCCCUCCCAAGAAAGCUAGGAAACUGGCUCCAUAAGCCAUCUGAGUGAAAGCUAGGACGGGGAUAUAAGACUUUGUUAUUACCAUGAGAAGUGGGGGAGCAACGAAGGGGAUUAACAACAGAGGAUUGAGCAUCA
B17: chr16:37877144:37877145:+_ENSMUSG00000034158_ENSMUST00000078717|perfect_dup|motif|central (ssRNA)
RNA: GGGAGUUCUACAGUCCGACGAUCAUUUGCUAAUUCUGGUGGGAUUUCUUUAAUGAAGUUUCCUCCAAGGUAUAAACAUUCGGAACUCCGCAAGUUCUCGAUCUCGGCGGGGAUGCUCUGCAGCUGGUUGCCGCCCAGGCUGAGCAACAGAGGAUUGAGCAUCA
B18: 15276215_15276606_5794_CDS_ENSG00000074181_ENST00000263388|human|control|control (ssRNA)
RNA: GGGAGUUCUACAGUCCGACGAUCGAUGAGCUCUUCCACCAUGCCCUCUACUGCCAGGCGGGCCGCCAGGAUCAGUGCCGUUGAGCCAUCUGCCAUGCGGGCAUCCAAGUCUGUAGAGCGGUUUCGGAUGAGAAUCUGGAAGACCAACAGAGGAUUGAGCAUCA
B19: chr12:8945443:8945444:+_ENSMUSG00000020585_ENSMUST00000020909|mus_mus|FALSE|FALSE (ssRNA)
RNA: GGGAGUUCUACAGUCCGACGAUCUGGAAACGUACAAAUGAGAAGCAUGCAACCAUCAUCUUCCACAGUCAAGUCAAACUGCUAUUUCUCUCUCUCUCCUGUUUCAUAGAGCUGGAAACUGCAGGUGUUAUACCCAACCUAUUCCAACAGAGGAUUGAGCAUCA
B20: chr7:135124741:135124742:+_ENSMUSG00000030795_ENSMUST00000077609|mus_mus|FALSE|FALSE (ssRNA)
RNA: GGGAGUUCUACAGUCCGACGAUCAGAGCCUCCUGGUCCCCCUCCUGGGCCAUCUGGCUUAGGUGCCUUACACUGGUUGCAUUCAUUUCUCCAAGAGAAGUUCAUGUUCUCACAUGUAGGAUUAGGACACUUCCAGUCUCCAGCCAACAGAGGAUUGAGCAUCA
B21: chr1:220276048:220276049:+_ENSG00000067704_ENST00000302637|hu_hu|hu_hu_hu_mus_True|78_108 (ssRNA)
RNA: GGGAGUUCUACAGUCCGACGAUCGCAAACAGCUUCAUUGGCGGGAAUUGUCCAAGGUUGUGUGGUCCAAACUAAAACGCUAACAGGGGAUGAGGCAUCUGUAAGAGACUCCAACUUCGGAGGAGGUCUCAGGAGGGGGAAUCUCAACAGAGGAUUGAGCAUCA
B22: 57110128_57110248_3118_3pUTR_ENSMUSG00000025085_ENSMUST00000111529|mouse|control|control (ssRNA)
RNA: GGGAGUUCUACAGUCCGACGAUCGGCUGGGAAUCUGUUGCUCUGUGUUACUGCAGGUGUGGCAGACAGCUGGUCGCUUUAGUCCUUCAGAAGGAAUUUCUGCAUUUUGUGCUGAGUGGUCAUUGGGGGUGAAUCCAAGUGCUUCAACAGAGGAUUGAGCAUCA

Each binder was assayed against T1, UNK ZnF1-3 (assay: nsRBNS (natural sequence RNA bind-n-seq); RBNS binding buffer (assumed for nsRBNS): 25 mM Tris pH 7.5, 150 mM KCl, 3 mM MgCl2, 0.01% Triton X-100, 500 ug/ml BSA, 20 U/ml SUPERase-In, 4 C; UNK is unkempt and MSI1 is Musashi-1; names of the RNAs are library labels; protein concentration not given here; high values mean tight binding).
For B1, the binding signal was 0.887 enrichment R.
B2 was tested, and the binding signal was 0.968 enrichment R.
Binder B3 has a binding signal of 0.849 enrichment R.
B4 was tested, and the binding signal was 2.71 enrichment R.
B5 was tested, and the binding signal was 0.726 enrichment R.
B6 showed a binding signal of 0.814 enrichment R.
Binder B7 has a binding signal of 0.663 enrichment R.
In the case of B8, the binding signal is reported as 2.07 enrichment R.
For B9, the binding signal was 1.08 enrichment R.
In the case of B10, the binding signal is reported as 0.841 enrichment R.
In the case of B11, the binding signal is reported as 0.858 enrichment R.
B12 was tested, and the binding signal was 1.04 enrichment R.
B13 showed a binding signal of 0.363 enrichment R.
In the case of B14, the binding signal is reported as 0.757 enrichment R.
B15 was tested, and the binding signal was 0.578 enrichment R.
B16 was tested, and the binding signal was 1.45 enrichment R.
B17 showed a binding signal of 0.89 enrichment R.
Work on B18 yielded a binding signal of 1.28 enrichment R.
B19 showed a binding signal of 1.1 enrichment R.
B20 was tested, and the binding signal was 0.775 enrichment R.
Binder B21 has a binding signal of 1.64 enrichment R.
B22 gave a binding signal of 0.617 enrichment R.
